# Measurements: PubChem BioAssay AID602156 (GNF / Scripps Winzeler lab, 2011)
# This is one part of the list. Shown are side measurements of this screen, not its main read-out; they come without a call.
# Assay: exo-erythrocytic parasite development inhibition – imaging, Malaria Box, P. yoelii, HepG2-A16-CD81EGFP, dose response (AID 602156);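 further: infected cells exposed to compound for 48 hours before fixation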
# Settings: P. yoelii liver stage in HepG2-A16-CD81EGFP, measured here: liver parasite size at 10 uM
row,SMILES,parasite size [um]
1,Cn1ncnc2c(=O)n(C)c(=O)nc1-2,12.5
2,CCc1cc2c(cc1-c1csc(N=C(N)N)n1)C(C)(C)CCC2(C)C,92.3
3,CCCCCCCc1cc(O)c2c3c(c(=O)oc2c1)CCC(C)C3 (stereo unspecified),31.5
4,C[C@@H]1C[C@@H]([C@H](O)CC2CC(=O)NC(=O)C2)C(=O)[C@@H](C)C1,14.6
5,CCCN[P+](CC(C)C)(NCCC)NCCC,27.2
6,CCOC(=O)CN(N=O)C1=C(N2CC2)C(=O)c2ccccc2C1=O,35.8
